Key:
[1] = system: S. typhimurium TA98; assay: Ames test, plate incorporation method, TA98; settings: S9 hamster, up to 5000 µg/plate
[2] = system: S. typhimurium TA100; assay: Ames test, pre-incubation method, TA100; settings: up to 5000 µg/plate
[3] = system: S. typhimurium TA100; assay: Ames test, plate incorporation method, TA100; settings: S9 hamster, up to 5000 µg/plate
[4] = system: S. typhimurium TA1535; assay: Ames test, pre-incubation method, TA1535; settings: up to 5000 µg/plate
[5] = system: S. typhimurium TA98; assay: Ames test, pre-incubation method, TA98; settings: S9 hamster, up to 5000 µg/plate
[6] = system: S. typhimurium TA1535; assay: Ames test, plate incorporation method, TA1535; settings: S9 hamster, up to 5000 µg/plate
[7] = system: S. typhimurium TA98, TA100, TA1535, TA1537 and E. coli WP2uvrA pKM101; assay: Ames test, plate incorporation method, overall result of five strains; settings: up to 5000 µg/plate
[8] = system: S. typhimurium TA98, TA100, TA1535, TA1537 and E. coli WP2uvrA pKM101; assay: Ames test, pre-incubation method, overall result of five strains; settings: pre-incubation, up to 5000 µg/plate

CCN(CC)N=O [NDEA, N-nitrosodiethylamine]
Ames test strain TA98 ([1]; vehicle DMSO): + (positive for mutagenicity, if a biologically relevant increase in the mean number of revertant colonies above a threshold of 2-fold (TA98, TA100, WP2 uvrA))
Ames test strain TA98 ([1]; vehicle methanol): + (positive for mutagenicity, if a biologically relevant increase in the mean number of revertant colonies above a threshold of 2-fold (TA98, TA100, WP2 uvrA))
Ames test strain TA98 ([1]; vehicle water): + (positive for mutagenicity, if a biologically relevant increase in the mean number of revertant colonies above a threshold of 2-fold (TA98, TA100, WP2 uvrA))
Ames test strain TA100 ([2]; S9 hamster, vehicle DHF): + (positive for mutagenicity, if a biologically relevant increase in the mean number of revertant colonies above a threshold of 2-fold (TA98, TA100, WP2 uvrA))
Ames test strain TA100 ([2]; S9 hamster, vehicle DMF): + (positive for mutagenicity, if a biologically relevant increase in the mean number of revertant colonies above a threshold of 2-fold (TA98, TA100, WP2 uvrA))
Ames test strain TA100 ([2]; S9 hamster, vehicle DMSO): + (positive for mutagenicity, if a biologically relevant increase in the mean number of revertant colonies above a threshold of 2-fold (TA98, TA100, WP2 uvrA))
Ames test strain TA100 ([2]; S9 hamster, vehicle acetone): + (positive for mutagenicity, if a biologically relevant increase in the mean number of revertant colonies above a threshold of 2-fold (TA98, TA100, WP2 uvrA))
Ames test strain TA100 ([2]; S9 hamster, vehicle methanol): + (positive for mutagenicity, if a biologically relevant increase in the mean number of revertant colonies above a threshold of 2-fold (TA98, TA100, WP2 uvrA))
Ames test strain TA100 ([2]; S9 hamster, vehicle water): + (positive for mutagenicity, if a biologically relevant increase in the mean number of revertant colonies above a threshold of 2-fold (TA98, TA100, WP2 uvrA))
Ames test strain TA100 ([2]; S9 rat, vehicle DHF): + (positive for mutagenicity, if a biologically relevant increase in the mean number of revertant colonies above a threshold of 2-fold (TA98, TA100, WP2 uvrA))
Ames test strain TA100 ([3]; vehicle DMSO): + (positive for mutagenicity, if a biologically relevant increase in the mean number of revertant colonies above a threshold of 2-fold (TA98, TA100, WP2 uvrA))
Ames test strain TA100 ([3]; vehicle methanol): + (positive for mutagenicity, if a biologically relevant increase in the mean number of revertant colonies above a threshold of 2-fold (TA98, TA100, WP2 uvrA))
Ames test strain TA100 ([3]; vehicle water): + (positive for mutagenicity, if a biologically relevant increase in the mean number of revertant colonies above a threshold of 2-fold (TA98, TA100, WP2 uvrA))
Ames test strain TA1535 ([4]; S9 hamster, vehicle DMF): + (positive for mutagenicity, if a biologically relevant increase in the mean number of revertant colonies above a threshold of 2-fold (TA98, TA100, WP2 uvrA) or 3-fold (TA1535, TA1537))
Ames test strain TA1535 ([4]; S9 hamster, vehicle DMSO): + (positive for mutagenicity, if a biologically relevant increase in the mean number of revertant colonies above a threshold of 2-fold (TA98, TA100, WP2 uvrA) or 3-fold (TA1535, TA1537))
Ames test strain TA1535 ([4]; S9 hamster, vehicle acetone): + (positive for mutagenicity, if a biologically relevant increase in the mean number of revertant colonies above a threshold of 2-fold (TA98, TA100, WP2 uvrA) or 3-fold (TA1535, TA1537))
Ames test strain TA1535 ([4]; S9 hamster, vehicle methanol): + (positive for mutagenicity, if a biologically relevant increase in the mean number of revertant colonies above a threshold of 2-fold (TA98, TA100, WP2 uvrA) or 3-fold (TA1535, TA1537))
Ames test strain TA1535 ([4]; S9 hamster, vehicle water): + (positive for mutagenicity, if a biologically relevant increase in the mean number of revertant colonies above a threshold of 2-fold (TA98, TA100, WP2 uvrA) or 3-fold (TA1535, TA1537))
Ames test strain TA1535 ([4]; S9 rat, vehicle acetone): + (positive for mutagenicity, if a biologically relevant increase in the mean number of revertant colonies above a threshold of 2-fold (TA98, TA100, WP2 uvrA) or 3-fold (TA1535, TA1537))
Ames test strain TA98 ([5]; vehicle DMSO): + (positive for mutagenicity, if a biologically relevant increase in the mean number of revertant colonies above a threshold of 2-fold (TA98, TA100, WP2 uvrA))
Ames test strain TA98 ([5]; vehicle methanol): + (positive for mutagenicity, if a biologically relevant increase in the mean number of revertant colonies above a threshold of 2-fold (TA98, TA100, WP2 uvrA))
Ames test strain TA98 ([5]; vehicle water): + (positive for mutagenicity, if a biologically relevant increase in the mean number of revertant colonies above a threshold of 2-fold (TA98, TA100, WP2 uvrA))
Ames test strain TA1535 ([6]; vehicle DMSO): + (positive for mutagenicity, if a biologically relevant increase in the mean number of revertant colonies above a threshold of 2-fold (TA98, TA100, WP2 uvrA) or 3-fold (TA1535, TA1537))
Ames test strain TA1535 ([6]; vehicle methanol): + (positive for mutagenicity, if a biologically relevant increase in the mean number of revertant colonies above a threshold of 2-fold (TA98, TA100, WP2 uvrA) or 3-fold (TA1535, TA1537))
Ames test strain TA1535 ([6]; vehicle water): + (positive for mutagenicity, if a biologically relevant increase in the mean number of revertant colonies above a threshold of 2-fold (TA98, TA100, WP2 uvrA) or 3-fold (TA1535, TA1537))
Ames test Result ([7]; S9 hamster, vehicle DMSO): Positive
Ames test Result ([7]; S9 hamster, vehicle methanol): Positive
Ames test Result ([7]; S9 hamster, vehicle water): Positive
Ames test Result ([7]; S9 rat, vehicle DMSO): Positive
Ames test Result ([7]; S9 rat, vehicle methanol): Positive
Ames test Result ([7]; S9 rat, vehicle water): Positive
Ames test Result ([8]; S9 hamster, vehicle DHF): Positive
Ames test Result ([8]; S9 hamster, vehicle DMF): Positive
Ames test Result ([8]; S9 hamster, vehicle DMSO): Positive
Ames test Result ([8]; S9 hamster, vehicle NMP): Positive
Ames test Result ([8]; S9 hamster, vehicle acetone): Positive
Ames test Result ([8]; S9 hamster, vehicle acetonitrile): Positive
Ames test Result ([8]; S9 hamster, vehicle methanol): Positive
Ames test Result ([8]; S9 hamster, vehicle water): Positive
Ames test Result ([8]; S9 rat, vehicle DHF): Positive
Ames test Result ([8]; S9 rat, vehicle DMF): Negative
Ames test Result ([8]; S9 rat, vehicle DMSO): Positive
Ames test Result ([8]; S9 rat, vehicle NMP): Negative
Ames test Result ([8]; S9 rat, vehicle acetone): Positive
Ames test Result ([8]; S9 rat, vehicle acetonitrile): Positive
Ames test Result ([8]; S9 rat, vehicle methanol): Positive
Ames test Result ([8]; S9 rat, vehicle water): Positive

— paper PMC10928841, “Ames test study designs for nitrosamine mutagenicity testing: qualitative and quantitative analysis of key assay parameters” (Mutagenesis, 2023)
